Measured values taken from PubChem BioAssay AID489043 (National Center for Advancing Translational Sciences (NCATS), 2010).
Inconclusive means that the source gave no clear call. Such entries were picked first, then a sample of the others. Where the call is inconclusive, the potency comes from a doubtful curve fit. The source made the active and inactive calls. Calls come from the whole dose curve; as a rule, active = well fitted activation curve with a large enough effect; inconclusive = small, poorly fitted or top-dose-only effect; inactive = flat fitted curve, though single readings scatter.

molecular target: Relaxin receptor 2 (Homo sapiens) (UniProt Q8WXD0); assay: qHTS Assay for Agonists of the Relaxin Receptor RXFP1: RXFP2 Hit Validation; details: HEK293 RXFP2 cAMP TR-FRET, 30 min; series mostly up to 115 µM; note: nearly all actives have a fitted effect of over 65% in size
Chain of UniProt Q8WXD0 (Q8WXD0 whole entry, looked up): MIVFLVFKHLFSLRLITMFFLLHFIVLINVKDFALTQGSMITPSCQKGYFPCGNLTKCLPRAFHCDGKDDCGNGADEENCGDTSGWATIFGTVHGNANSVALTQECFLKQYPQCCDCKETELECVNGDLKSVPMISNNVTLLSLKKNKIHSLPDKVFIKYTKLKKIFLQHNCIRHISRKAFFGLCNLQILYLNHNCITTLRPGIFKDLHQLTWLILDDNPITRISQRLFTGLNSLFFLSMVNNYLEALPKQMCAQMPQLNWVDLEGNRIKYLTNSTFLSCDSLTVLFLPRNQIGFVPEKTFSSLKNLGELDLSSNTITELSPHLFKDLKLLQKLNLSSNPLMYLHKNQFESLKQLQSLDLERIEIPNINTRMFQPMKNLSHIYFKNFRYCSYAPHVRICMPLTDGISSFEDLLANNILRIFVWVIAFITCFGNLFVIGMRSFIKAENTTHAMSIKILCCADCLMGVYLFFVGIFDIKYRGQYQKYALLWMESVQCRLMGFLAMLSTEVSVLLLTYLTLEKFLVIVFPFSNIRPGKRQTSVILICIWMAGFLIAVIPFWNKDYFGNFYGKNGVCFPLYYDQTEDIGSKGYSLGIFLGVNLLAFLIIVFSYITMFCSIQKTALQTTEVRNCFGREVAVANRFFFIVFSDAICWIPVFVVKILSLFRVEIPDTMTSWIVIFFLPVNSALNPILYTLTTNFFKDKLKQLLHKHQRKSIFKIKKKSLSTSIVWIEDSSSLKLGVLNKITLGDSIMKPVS
Text: NIH Chemical Genomics Center [NCGC] NIH Molecular Libraries Probe Production Centers Network [MLPCN] MLPCN Grant: R03 MH085705-01A1 Assay Submitter (PI): Alexander Agoulnik NCGC Assay Overview: The relaxin hormone is involved in the variety of biological functions in normal tissues and diseases. The role of relaxin is well-established in female reproduction and parturition, mammary gland and endometrial development, maintenance of myometrial quiescence during pregnancy. Relaxin signaling through its G protein-coupled receptor (GPCR) RXFP1 results in ECM remodeling through regulation of collagen deposition, cell invasiveness, proliferation and overall tissue homeostasis. […] Recombinant human relaxin (rhRlx) is currently being tested in clinical trials as a protective agent in congestive heart failure, in treating severe preeclampsia, and as an anti-fibrotic agent in systemic sclerosis. Upon relaxin binding RXFP1 activation leads to the activation of adenylate cyclase (AC) via Gs. cAMP will activate PKA, which phosphorylates many signaling proteins. Thus, detection of cAMP increase is an easy and reliable indication of relaxin receptor activation. To screen for agonists of the relaxin receptor, a HEK293T cell line stably transfected with RXFP1 was used. RXFP1 activation was assayed by changes in cAMP levels as detected with a time-resolved fluorescence energy transfer (TR-FRET) cAMP detection kit. This assay measures activation of a cell expressing RXFP2, another GPCR targeted by relaxin, to determine the selectivity of compounds for RXFP1.
NCGC Assay Protocol Summary: This is a cell-based assay for cAMP second messenger response to screen for agonists of the RXFP2 receptor. The assay was conducted in the presence of a PDE4 inhibitor (Ro 20174). The cells were lysed and the cAMP levels were measured with a TR-FRET cAMP kit. Presence of cAMP in the cell lysate disrupts binding between the cryptate-labeled anti-cAMP and d2-labeled cAMP pair, leading to a decrease in the TR-FRET signal. Data were normalized to the controls for basal activity (buffer only) and 100% activity (29 nM porcine relaxin). The EC50 values were determined from concentration-response data modeled with the standard Hill equation 1536-well assay protocol for the HEK293 RXFP2 cAMP assay: (1) Add 3 ul HEK293 RXFP2 cell culture. 2000 cells/well in DMEM/F12, 10% FBS, 1x Pen/Strep (dispensed offline with MultiDrop Combi). (2) Incubate 16-24 hr at 37C, 5% CO2. (3) Add 1 ul 400uM Ro20174 in DPBS, 0.05% BSA, 0.005% Tween 20. (3) Add 23 nl compounds in DMSO solution. Final concentration was 0.5 - 58 uM. (4) Incubate 30 min at 37C, 5% CO2. (5) Add 1 ul cAMP-d2 in lysis buffer (HTRF cAMP HiRange kit, CisBio). (6) Add 1 ul anti-cAMP antibody-cryptate in lysis buffer (HTRF cAMP HiRange kit, CisBio). (7) Incubate 30 min at room temperature. […] Keywords: relaxin, RXFP1, RXFP2, G-protein coupled receptor, cAMP, agonist, high throughput screening, MLSMR, MLSCN, NIH Roadmap, qHTS and NCGC
Potency is the fitted concentration of half-maximal effect; tags give direction and shape of the fitted curve.

SMILES	Potency
C/C(=N\NC(=O)c1c(C)nc2ccccn12)c1ccc(N2CCOCC2)cc1	inconclusive: 27.5 µM [activator, partial curve]
Cc1ccc(C(=O)Nc2cccc(C(F)(F)F)c2)cc1NC(=O)c1cnnc2ccccc12	inactive
O=[N+]([O-])c1cccc(COc2ncnc3cc([N+](=O)[O-])ccc23)c1	inconclusive: 34.6 µM [activator, partial curve]
Cc1nn(CCCC(=O)NCCc2ccccc2)c(=O)c2nccn12	inconclusive: 38.9 µM [activator, partial curve]
CCN(CC)S(=O)(=O)c1ccc(Cl)c(NC(=O)CSc2cccc[n+]2[O-])c1	inconclusive: 30.9 µM [activator, partial curve]
CCCc1nc(SCC(=O)NCC2CCCO2)c2c(=O)n(C)c(=O)n(C)c2n1 (stereo not given)	inconclusive: 19.4 µM [activator, partial curve]
CC1CCCN(C(=O)COC(=O)CNC(=O)c2sc3ccccc3c2Cl)C1 (stereo not given)	inconclusive: 10.9 µM [activator, partial curve]
Cn1c(=O)c2c(nc(CN3CCN(C(=O)c4ccco4)CC3)n2CCCO)n(C)c1=O	inconclusive: 27.5 µM [activator, partial curve]
O=C(Nc1cc(S(=O)(=O)N2CCOCC2)ccc1N1CCOCC1)c1cn2ccccc2n1	inconclusive: 24.5 µM [activator, partial curve]
c1ccc(COn2nnc3ccccc32)c(COn2nnc3ccccc32)c1	inactive
CC(C)(C)C(=O)Nc1ccccc1C(=O)NCc1ccco1	inactive
COc1ccc(CN2C(=O)c3cccnc3C2=O)cc1S(=O)(=O)N1CCCC(C)C1 (stereo not given)	inconclusive: 10.9 µM [activator, partial curve]
CC1CCCCN1C(=O)c1ccccc1NC(=O)c1ccco1 (stereo not given)	inactive
CCOC(=O)c1sc(=NC(=O)c2ccc(S(=O)(=O)N(C)c3ccccc3)cc2)n(C)c1C	inconclusive: 17.3 µM [activator, partial curve]
Cc1cc(C)c(C(=O)CSc2n[nH]c(=O)n2C2CC2)cc1C	inactive
NCCNC(=O)Cc1ccc(NC(=O)Cc2ccc(Nc3ncnc4c3ncn4[C@@H]3O[C@H](CO)[C@@H](O)[C@H]3O)cc2)cc1	inconclusive: 6.9 µM [activator, partial curve]
CC(NC(=O)c1ccccc1NC(=O)c1ccco1)c1ccccc1 (stereo not given)	inconclusive: 41.5 µM [activator, partial curve]
CCc1ccc2n(-c3ccc(OC)cc3)c([S-])c(C(=O)Nc3cc(C)cc(C)c3)[n+]2c1	active: 30.8 µM
COc1ccc(CN2C(=O)c3cccnc3C2=O)cc1S(=O)(=O)N1CCCCC1C (stereo not given)	inconclusive: 10.9 µM [activator, partial curve]
CCOC(=O)C(CC)Sc1ccc2nnc(-c3cccnc3)n2n1 (stereo not given)	inconclusive: 30.9 µM [activator, partial curve]

SMILES	Potency
Cc1ccc(CNC(=O)CCCn2nc(C)n3ccnc3c2=O)cc1	inconclusive: 34.6 µM [activator, partial curve]
NN1C(=O)/C(=C2/Sc3ccccc3N2CCCS(=O)(=O)O)SC1=S	inconclusive: 24.5 µM [activator, partial curve]
CN(C)S(=O)(=O)c1ccc(C(=O)OCC(=O)Nc2cccnc2Cl)cc1	inconclusive: 21.8 µM [activator, partial curve]
COC(=O)CCNC(=O)Cn1cnc2sc3c(c2c1=O)CCCC3	inconclusive: 34.6 µM [activator, partial curve]
CCC(=O)Nc1ccc(-n2nnnc2SCC(=O)NNC(=O)c2ccco2)cc1	inactive
O=C(Nc1ccccc1C(=O)NCc1ccccc1)c1ccco1	inactive
CCCn1c(SCC(=O)Nc2ccc(NC(C)=O)cc2)nc2c1c(=O)n(C)c(=O)n2C	active: 34.6 µM
O=C(CCc1nnc2ccc(NCCCN3CCCC3=O)nn12)NCc1ccccc1Cl	inactive
Cc1ccc(-n2c(=S)[nH]c3sc4c(c3c2=O)CCC4)cc1	inconclusive: 6.9 µM [activator, full curve]
Cn1c(=O)c2sccc2n2c(CCCC(=O)N3CCCCC3)nnc12	inconclusive: 21.9 µM [activator, full curve]
O=C(NN1C(=O)c2ccccc2NC1c1ccc([N+](=O)[O-])o1)c1ccc([N+](=O)[O-])cc1 (stereo not given)	inconclusive: 21.8 µM [activator, partial curve]
O=C(Nc1ccccc1C(=O)NC1CCCCC1)c1ccco1	inactive
CCOC(=O)c1cc2c(=O)n3ccccc3nc2n(Cc2ccco2)c1=NC(=O)c1ccccc1OCC	inconclusive: 38.9 µM [activator, partial curve]
Cc1[nH]n(-c2ccc([N+](=O)[O-])cc2)c(=O)c1C=NCCN1CCN(C(=O)C(C)C)CC1	inconclusive: 38.9 µM [activator, partial curve]
CCOc1ccccc1OCC(=O)NNC(=O)Cn1cnc2c1c(=O)n(C)c(=O)n2C	inconclusive: 21.9 µM [activator, partial curve]
CCN1CCN(c2nc3c(C)cccn3c(=O)c2/C=C(\C#N)C(=O)NCCOC)CC1	inconclusive: 48.9 µM [activator, partial curve]
CC(NC(=O)c1ccccc1NC(=O)c1ccco1)C(=O)O (stereo not given)	inactive
CC(C)C(=O)Nc1ccc(Nc2ccccc2)cc1	inactive
Cc1c(C(=O)NNc2cc(=O)n(C)c(=O)n2C)cccc1[N+](=O)[O-]	inconclusive: 19.4 µM [activator, partial curve]
O=C(CSc1ccc2nnc(-c3ccncc3)n2n1)NCC1CCCO1 (stereo not given)	inconclusive: 43.6 µM [activator, partial curve]
